In PubChem BioAssay AID1460 (National Center for Advancing Translational Sciences (NCATS), 2008):
“And” between values parts separate entries of the source, which are not always exact repeats. Equal entries are not always repeated. Screen size: about 270,000 compounds; about 5,800 (2.1%) were called active. The shares of active, inactive and inconclusive entries below differ from those in the screen. The call rests on the fitted dose curve; in most records, active means well fitted inhibition curve with a large enough effect; inconclusive means small, poorly fitted or top-dose-only effect; inactive means flat fitted curve, though single readings scatter. A potency beside an inconclusive call is a rough fit, not a confirmed value.

target: Microtubule-associated protein tau (Homo sapiens) (UniProt P10636); experiment: qHTS for Inhibitors of Tau Fibril Formation, Thioflavin T Binding; conditions: recombinant tau K18 P301L (four-repeat tau fragment), heparin-induced fibrillization, ThT fluorescence; series mostly up to 57.4 µM; activity, negative = inhibition: at the top concentration; further: nearly all actives have a fitted effect of over 55% in size
Chain of UniProt P10636 (P10636 whole entry, looked up, the tested form may be a part): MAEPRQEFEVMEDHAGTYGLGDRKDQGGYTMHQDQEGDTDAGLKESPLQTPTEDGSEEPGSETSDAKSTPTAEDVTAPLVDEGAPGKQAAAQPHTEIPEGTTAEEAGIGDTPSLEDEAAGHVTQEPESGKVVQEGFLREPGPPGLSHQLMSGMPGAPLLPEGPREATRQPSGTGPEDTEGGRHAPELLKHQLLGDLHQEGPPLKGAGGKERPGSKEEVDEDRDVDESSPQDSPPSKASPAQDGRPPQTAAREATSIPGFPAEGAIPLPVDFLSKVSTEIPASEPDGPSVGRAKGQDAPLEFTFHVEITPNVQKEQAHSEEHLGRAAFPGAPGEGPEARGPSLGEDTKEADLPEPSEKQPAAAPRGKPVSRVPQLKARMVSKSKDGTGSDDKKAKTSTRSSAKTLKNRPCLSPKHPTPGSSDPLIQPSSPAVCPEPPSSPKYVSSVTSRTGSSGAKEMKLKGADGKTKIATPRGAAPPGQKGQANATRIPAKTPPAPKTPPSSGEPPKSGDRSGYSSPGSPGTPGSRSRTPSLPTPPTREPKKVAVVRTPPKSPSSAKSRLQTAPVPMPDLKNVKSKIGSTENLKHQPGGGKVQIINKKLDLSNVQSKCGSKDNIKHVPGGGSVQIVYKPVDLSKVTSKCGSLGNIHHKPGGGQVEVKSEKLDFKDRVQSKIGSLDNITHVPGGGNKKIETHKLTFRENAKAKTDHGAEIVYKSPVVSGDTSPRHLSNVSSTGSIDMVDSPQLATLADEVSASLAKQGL
Outline: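 K18 P301L tau (15 uM + 0.24 uM Alexa 594-tagged), heparin 20 uM, NaOAc pH 7, 6 h 37 C; ThT 30 uM, 1 h RT, ex 450/em 510 nm.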
On the % scale 0 is the no-effect control and ±100 the full control effect; potency means the concentration at half of the fitted maximal effect; tags describe the fitted curve by direction and shape.

SMILES	Potency	activity, negative = inhibition
O=C(CSc1c2c(nc3ccc(Cl)cc13)CCCC2)N1CCN(c2cccc(Cl)c2)CC1	inconclusive: 12.6 µM [inhibitor, partial curve, poor fit]	–
Cc1cccc(NC(=O)c2ccc(C(=O)c3ccccc3)o2)c1	inconclusive: 14.1 µM [inhibitor, partial curve]	–
O=C1CCCC(O)=C1N=Nc1cccc(C(=O)O)c1	inconclusive: 15.8 µM [inhibitor, partial curve]	–
O=C(NNc1nc2ccc(Cl)cc2s1)c1cc(-c2cccs2)nc2ccccc12	inconclusive: 11.2 µM [inhibitor, partial curve]	–
Cc1ccc(CNC(=O)C2CCCN(S(=O)(=O)c3cccc4nsnc34)C2)cc1 (configuration not stated)	–	inactive: 3.08%
O=C(Nc1nc(-c2ccccc2)cs1)c1ccccc1NS(=O)(=O)c1ccc(F)cc1	active: 14.1 µM	–
CCc1ccc2c(c1)c(=O)c(S(=O)(=O)c1ccc(F)cc1)cn2CC(=O)Nc1ccc(C)cc1C	–	inactive: -8.77%
CCOC(=O)C1=C(CSc2nc(-c3ccncc3)ccc2C#N)OC(N)=C(C#N)C1c1ccc(OC)cc1 (configuration not stated)	inconclusive: 17.8 µM [inhibitor, partial curve]	–
NS(=O)(=O)c1ccc(NC(=O)COC(=O)c2cn(-c3ccccc3)nc2-c2ccc(F)cc2)cc1	–	inactive: -0.194%
CCOC(=O)c1c(C)n(C)c2ccc(O)c(CN(C)C)c12	inconclusive: 31.6 µM [inhibitor, single point]	–
Cc1cc(C)n(-c2ccc(C(=O)OCC(=O)Nc3cc(Cl)ccc3[N+](=O)[O-])cc2)n1	–	inactive: -10.9%
CCc1nn2c(=O)cc(COC(=O)c3cccc(NC(=O)c4ccccc4Cl)c3)nc2s1	inconclusive: 7.08 µM [inhibitor, full curve, poor fit]	–
COc1ccc(-c2cc(-c3cc(C)ccc3O)[nH]n2)cc1	inconclusive: 35.5 µM [activator, single point]	–
O=C(/C=C/c1ccccc1Cl)Nc1ccc2c(c1)C(=O)NC2=O	inconclusive: 1.41 µM [inhibitor, partial curve]	–
C=C(CC1([C@@H](NP(=O)(c2ccccc2)c2ccccc2)[C@H]2C[C@@H]2CCCC)CC1)c1ccccc1	inconclusive: 2.82 µM [inhibitor, partial curve, poor fit] and inconclusive: 17.8 µM [inhibitor, partial curve]	–
CC(C)(Oc1ccc(Cl)cc1)C(=O)NC1=NN(c2ccccc2)C(=O)C1	inconclusive: 7.08 µM [inhibitor, partial curve]	–
Cc1ccccc1C(=O)Nc1ccc(-c2nc3ccc(C(=O)c4ccccc4)cc3[nH]2)cc1	–	inactive: -4.55%
NC(=O)CSc1ncc(-c2ccc([N+](=O)[O-])cc2)[nH]1	inconclusive: 20 µM [inhibitor, partial curve]	–
CN(C)c1ccc(NC(=O)c2sc(SCC(=O)Nc3nccs3)nc2N)cc1	active: 3.98 µM	–
CCOc1cc(/C=C\[N+](=O)[O-])ccc1OCC(=O)N1CCOCC1	inconclusive: 14.1 µM [inhibitor, partial curve]	–
CCN(CC)S(=O)(=O)c1ccc2c(c1)nc(CCC(=O)Nc1ccc3c(c1)OCO3)n2C	inconclusive: 22.4 µM [inhibitor, partial curve]	–
CCOc1ccc2c(c1)S/C(=C\c1cccs1)C(=O)N2	inconclusive: 1.58 µM [inhibitor, full curve]	–
O=C(CSCc1ccccc1Cl)N1CCN(c2ccc(F)cc2)CC1	inconclusive: 5.62 µM [inhibitor, partial curve]	–

SMILES	Potency	activity, negative = inhibition
COc1cc(NC(=O)CC2C(=O)N(c3ccc(Cl)cc3)C(=O)N2Cc2cccs2)cc(OC)c1 (configuration not stated)	–	inactive: -2.24%
CCn1c(=NC(=O)c2cccc(N3C(=O)CCC3=O)c2)sc2c(OC)ccc(OC)c21	inconclusive: 0.398 µM [inhibitor, full curve, poor fit]	–
CCOC(=O)c1cccc(NC(=O)CN2C(=O)c3ccccc3Sc3ncccc32)c1	–	inactive: -7.11%
CCOc1ccc(NN=C(C(=O)OC)C(=O)OC)c([N+](=O)[O-])c1	inconclusive: 3.98 µM [inhibitor, partial curve]	–
N#Cc1nc(COc2ccc(Br)cc2)oc1N1CCCCCC1	–	inactive: -15.9%
CCn1c2c(c3cc(Br)ccc31)CCC/C2=N\O	inconclusive: 20 µM [inhibitor, single point]	–
C/C(=N/NC(=O)c1ccc(NC(=O)c2ccc(F)cc2)cc1)c1ccccc1	inconclusive: 3.16 µM [inhibitor, full curve]	–
COc1ccc(NC(=O)C2C3CC/C=C\CCC32)cc1 (configuration not stated)	–	inactive: -1.24%
COc1ccc(-c2[nH]ncc2C(=O)NCc2ccccc2C)cc1	inconclusive: 35.5 µM [inhibitor, single point]	–
COc1cccc(/C=N/NC(=O)c2cc(-c3cccn3C)n[nH]2)c1O	inconclusive: 0.447 µM [inhibitor, full curve]	–
CCOC(=O)c1cc(-c2ccccc2)n(-c2cccc(C(=O)Nc3ccc(OC)cc3)c2)c1C	–	inactive: 0.352%
O=C(Cn1c(=O)c2cccn2c2ccccc21)Nc1cc(F)ccc1F	–	inactive: 3.4%
CC1(C)CC(=O)C2=C(C1)N(c1ccccc1C#N)C(N)=C(C#N)C2c1cccs1 (configuration not stated)	inconclusive: 12.6 µM [inhibitor, partial curve]	–
COC(=O)C1=C(C)NC(=S)NC1c1ccc(-c2cccc(Cl)c2)o1 (configuration not stated)	inconclusive: 10 µM [inhibitor, partial curve]	–
COC(=O)C1=C(C)NC(C)=C([N+](=O)[O-])[C@H]1c1ccccc1C(F)(F)F	inconclusive: 20 µM [inhibitor, partial curve]	–
COc1cc(Cl)cc(/C=C/c2ccc3ccccc3n2)c1OC(C)=O	inconclusive: 11.2 µM [inhibitor, partial curve]	–
CCCCSCc1[nH]c(=O)[nH]c1C(=O)CCCCC(=O)OCC	–	inactive: -11%
COc1ccc(N2CCN(C(=O)c3cn(CC(C)C)c(=O)c4c3c3ccccc3n4C)CC2)cc1	inconclusive: 12.6 µM [inhibitor, partial curve]	–
COc1ccccc1NC=C1C(=O)OC2(CCCCC2)OC1=O	–	inactive: -7.94%
COc1ccc(-n2c(N)c(C(=O)NCc3ccco3)c3nc4ccccc4nc32)cc1OC	inconclusive: 11.2 µM [inhibitor, partial curve]	–
Cc1[nH]n(-c2cccc3ccccc23)c(=O)c1C=Nc1ccc2[nH]c(=O)[nH]c2c1	inconclusive: 7.08 µM [inhibitor, partial curve]	–
C/C(=N\NC(=S)Nc1cccc(C)c1)c1ccccc1	inconclusive: 15.8 µM [inhibitor, partial curve]	–
O=C(Nc1cccc(S(=O)(=O)NC2=NCCCCC2)c1)c1cc(-c2ccco2)nc2ccccc12	inconclusive: 31.6 µM [inhibitor, single point]	–

SMILES	Potency	activity, negative = inhibition
O=c1ccc2[n+]([O-])c3ccc(O)cc3oc-2c1	active: 12.6 µM	–
CCCCOP(=O)(c1ccc(N(C)C)cc1)C(O)c1ccncc1 (configuration not stated)	–	inactive: -2.27%
COc1ccc(S(=O)(=O)N2CCN(c3c(C)cccc3C)CC2)cc1OC	–	inactive: -5.41%
CC1(CC(=O)N/N=C/c2cc([N+](=O)[O-])c(O)cc2O)OCCO1	inconclusive: 14.1 µM [inhibitor, partial curve]	–
COCc1cc(C)nc2sc(C(=O)N3CCN(c4ccccc4)CC3)c(N)c12	inconclusive: 39.8 µM [inhibitor, single point]	–
COc1ccccc1NC(=O)c1cccc(S(=O)(=O)N2CCCCCC2)c1	–	inactive: -10.1%
CCc1ccc(CNC(=O)c2ccc(NC(=O)N3CCCCc4ccccc43)cc2)cc1	–	inactive: -2.52%
COc1ccc(Cn2c(SCc3ccc(C(=O)NC(C)C)cc3)nc3cccnc32)cc1	–	inactive: 3.7%
CC1(C)CC(=O)C(C(c2cccc([N+](=O)[O-])c2)C2C(=O)CC(C)(C)CC2=O)C(=O)C1	inconclusive: 25.1 µM [inhibitor, partial curve]	–
O=[N+]([O-])c1ccc(N/N=C\c2cccn2-c2ccccc2)nc1	active: 7.08 µM	–
CS(=O)(=O)N1CCN(c2ccc(NC(=O)CSc3nnc(-c4ccco4)o3)cc2)CC1	inconclusive: 15.8 µM [inhibitor, partial curve, poor fit]	–
COc1ccc(NC(=O)N2CCN(C(=O)Nc3ccc(OC)cc3)CC2)cc1	inconclusive: 35.5 µM [inhibitor, partial curve, poor fit]	–
CCNc1nc(NC(C)C)nc(N(C#N)CCOc2ccc(Cl)cc2Cl)n1	inconclusive: 25.1 µM [inhibitor, single point]	–
CSc1cccc(Nc2nc3c(S(=O)(=O)c4ccccc4)nnn3c3ccc(Cl)cc23)c1	–	inactive: 5.75%
COc1ccc(OC)c(NC(=O)/C=C/c2ccccc2[N+](=O)[O-])c1	inconclusive: 25.1 µM [inhibitor, partial curve]	–
CCCC(=O)Nc1nc(C)c(-c2csc(Nc3ccc(Cl)cc3)n2)s1	active: 12.6 µM	–
Cn1ncc2c(NCc3ccccc3)ncnc21	inactive	–
Oc1ccc(Br)cc1/C=N/N1CCCCC1	inconclusive: 20 µM [inhibitor, partial curve]	–
COc1ccc(CNC(=O)c2c3c(nc4ccccc24)C(=O)N(C2CCCCC2)C3)c(OC)c1	inconclusive: 44.7 µM [inhibitor, single point]	–
COC(=O)c1scc(-c2ccc(C)cc2)c1S(=O)(=O)Nc1cc(OC)c(OC)c(OC)c1	–	inactive: -11.4%
N#C/C(=C\C=C\c1ccccc1)c1nc(-c2ccc(Cl)cc2)cs1	inconclusive: 8.91 µM [inhibitor, full curve]	–
